Measurements published in the RNAGym collection of RNA variant scans (doi:10.7554/elife.90254).
Read counts are not given, so values of variants with three or more changes are uncertain.

B1: LINE1-full (parent)
chain: UACGUAGGUGGUUUUCCCCUGAUAGUGCUAAGGGGGCCUGGAAGUUUGGACUGGGCAGAGCUCAACACAGCGUGGCAAAGUGGCUGUGGCUAGACUGCCUCUCUGGAUUCCUCGUCACUCAGCAGGGCAUCUCUGAGAGAAAUGCC

Variants of: B1
Experiment: self-cleavage, relative activity (ratio to wild type); higher = more cleavage; in vitro, sequencing; the parent is a self-cleaving ribozyme
Variant UACGUAGGGGGUUUUCCCCUGAUAGUGCUAAGGGGGCCUGGAGGUUUGGACUGGGCAGAGCUCAACACAGCGUGGCAAAGUGGCUGUGGCUAGACUACCUCUCUGGAUUCCUCGUCACUCAGCAGGGCAUCUCUGAGAGAAAUGCC [U9G A43G G97A] has a self-cleavage of 0.18.
Work on UACGUAGGCGGUUUUCCCCUGAUAGUGCUAAGGGGGCCUGGAAGUUUGGACUGGGCAGAGCCCAACACAGCGAGGCAAAGUGGCUGUGGCUAGACUGCCUCUCUGGAUUCCUCGUCACUCAGCAGGGCACCUCUGAGAGAAAUGCC [U9C U62C U73A U130C] yielded a self-cleavage of 0.
Variant UACGUAGGCGGUUUUCCCCUGAUAGUGCUAAGGGGGCCUGGAAGUUUGGACUGGGCAGAGCUCAACACAGCGUGGCAAAGUGGCUGUGGCUAGACUGCCCCUCUGGAUUCCUCGUCGCUCAGCAGGGCAUCUCUGAGAGAAAUGCC [U9C U100C A117G] has a self-cleavage of 0.
UACGUAGGCGGUUUUCCCCUGAUAGUGCUAAGGGGGCCUGGAAGUUUGGACUGGGCAGAGCUCAACACAGCGUGGCAAAGCGGCUGUGGCUAGACUGCCCCUCUGGAUUCCUCGUCACUCAGCAGGGCAUCUCUGAGAGAAAUGCC [U9C U81C U100C] gave a self-cleavage of 2.12.
In the case of UACGUAGGGGGUUUUCCCCUGAUAGUGCUAAGGGGGCCUGGAAGUUUGGACUGGGCAGGGCUCAACACAGCGUGGCAAAGUGGCUGUGGCUAGACUGCCUCUCUGGAUUCCUCGUCACUCAGCAGGGCAUCUCCGAGGGAAAUGCC [U9G A59G U134C A138G], the self-cleavage is reported as 0.34.
Variant UACGUAGGCGGUUUUCCCCUGAUAGUGCUAAGGGGGCCUGGAAGUUUGGACUGGGCAGAGCCCAACACCGCGUGGCAAAGUGGCAGUGGCUAGACUGCCUCUCUGGAUUCCUCGUCACUCAGCAGGGCAUCUCUGAGAGAAAUGCC [U9C U62C A69C U85A] has a self-cleavage of 0.
UACGUAGGCGGUUUUCCCCUGAUAGUGCUAAGGGGGCCUGGAAGUUUGGACUGGGCAGAGCUCAACACAGCGUGGCAAAGUGGCUGUGGCAAGACUGCCUCUCUGGAUCCCUCGUCACUCAGCAGGGCAUCUCUGAGAGAAAUGCC [U9C U91A U109C] showed a self-cleavage of 0.8.
UACGUAGGCGGUUUUCCCCUGAUAGUGCUAAGGGGGCCUGGAAGUUUGGACUGGGCAGAGCUCAACACAGCGUGGCAAAGUGGCUGUGGCUAGACUGCCUCUCUGGAUACCUCGACACUCAGCAGGGCAUCUCUGAGAGAAAUGCC [U9C U109A U115A] gave a self-cleavage of 1.4.
For UACGUAGGGGGGUUCCCCCUGAUAGUGCUAAGGGGGCCUGGAAGUUUGGACUGGGCAGAGCUCAACACAGCGUGGCAAAGUGGCUGUGGCUAGACUGCCUCUCUGGAUUCCUCGUCACUCAGCAGGGCAUCUCUGAGAGAAAUGCC [U9G U12G U15C], the self-cleavage was 0.35.
Variant UACGUAGGGGGUAUUCCCCUGAUAGUGCUAGGGGGGCCUGGAAGUUUGGACUGGGCAGAGCUCAACUCAGCGUGACAAAGUGGCUGUGGCUAGACUGCCUCUCUGGAUUCCUCGUCACCCAGCAGGGCAUCUCUGAGAGAAAUGCC [U9G U13A A31G A67U G75A U119C] has a self-cleavage of 0.36.
Work on UACGUAGGCGGUUUUCCCCUGAUAGUGCUAAGGGGGCCUGGAAGUUUGGACUGGGCAGAGCUCAACACAGCGUGGCAAAGUGGCUGUGGCUAGACUGCCUCUCUGGAUUCCUCGUCACCCAGCAGGGCAUCUCUGAGAGGAAUGCC [U9C U119C A140G] yielded a self-cleavage of 1.05.
Variant UACGUAGGCGGUUUUCCCCUGAUAGUGCUAAGGGGGCCUGGAAGUUUGGACUGGGCAGAGCUCAACACAGCGUGGCAAAGUGGCUGCGGCUAGACCGCCUCUCUGGAUUCCUCGUCACUCAGCAGGGCAUCUCUGAGAGAAGUGCC [U9C U87C U96C A142G] has a self-cleavage of 0.
Variant UACGUAGGGGGUUUUCCCCUGAUAGUGCUAAGGGGGCCUGGAAGUUUGGACUGGGCAGAGCUCAACACUGCGUGGCAAAGUGGCUGUGGCUAGACUGCCUCUCUGGAUUCCUCGUCACACAGCAGGGCAUCUCUGAGAGAAAUGCC [U9G A69U U119A] has a self-cleavage of 0.
UACGUAGGCGGUUUUCCCCUGAUAGUGCUAAGGGGGCCUGGAAGUUUGGACUGGGCAGAGCUCAACACAGCGUGGCAAAGUGGCUGUGGCUAGACUGCCUCCCUGGAUUCCUCGUCGCUCAGCAGGGCAUCUCUGAGAGAAAUGCC [U9C U102C A117G] showed a self-cleavage of 0.
For UACGUAGGCGGUUUUCCCCUGAUAGUGCUAAGGGGGCCUGGAAGUUUGGACUGGGCAGAGCUCAACACAGCGUGGCAAAGUGGCUGUGGCUAGACUGCCUCUCUGGAUUCCCCGUCACUCAGCAGGGUAUCUCUGAGAGAAAUGCC [U9C U112C C128U], the self-cleavage was 1.66.
In the case of UACGUAGGGGGUUUUCCCCUGAUAGUGCUAAGGGGGCCUGGAAGUUUGGACUGGGCGGAGCUCAGCACAGUGUGGCAAAGUGGCUGUGGCUGGACUGCCUCUCUGGAUUCCUCGUCACUCAGCAGGGCACCUCUGAGAGAAAUGCC [U9G A57G A65G C71U A92G U130C], the self-cleavage is reported as 0.
Variant UACGUAGGGGGUUUUCCCCUGAUAGUGCUAGGGGGGCCUGGAAGUUUGGACUGGGCAGAGCUCAACACAGCGUGGCAAAGUGGCUGUGGCCAGACUGCCUCUCUGGAUUCCUUGUCUCUCAGCAGGGCAUCUCUGAGAGAAAUGCC [U9G A31G U91C C113U A117U] has a self-cleavage of 0.64.
Work on UACGUAGGCGGUUUUCCCCUGAUAGUGCUAAGGGGGCCUGGAAGUUUGGACUGGGCAGAGCUCAACACAGCGUGGCAAAGUGGCUGUGGCUAGACUGCCUCUCCGGGUUCCUCGUCACUCAGCAGGGCAUCUCUGAGAGAAAUGCC [U9C U104C A107G] yielded a self-cleavage of 0.
Variant UACGUAGGCGGUUUUCCCCUGAUAGUGCUAAGGGGGCCUGGAAGUUUGGACUGGGCAGAGCUCAACACAGCGUGGCAAAGUGGCUGUGGCUAGACUGCCUCCCUGGAUUCCUCGUCACUCAACAGGGCAUCUCUGAGAGAAAAGCC [U9C U102C G122A U143A] has a self-cleavage of 1.54.
UACGUAGGCGGUUUUCCCCUGAUAGUGCUAAGGGGGCCUGGAAGUUUGGACUGGGCAGAGCUCAACACAGCGUGGCAAAGUGGCUGUGGCUAGACUGCCACUCUGGACUCCUCGUCACUCAGCAGGGCAUCUCUGAGAGAAACGCC [U9C U100A U108C U143C] gave a self-cleavage of 0.77.
